{"source": "PubChem BioAssay AID651820", "about": "(National Center for Advancing Translational Sciences (NCATS), 2012)", "note": "Where “and” joins values, the source holds several entries; their conditions need not be identical. Equal entries are not always repeated. The whole screen tested about 340,000 compounds, of which about 12,000 (3.5%) were called active. The inconclusive results got no clear call from the source; some entries with a clear call stand among them for comparison. Calls follow the shape of the dose curve; as a rule, active = well fitted inhibition curve with a large enough effect; inconclusive = small, poorly fitted or top-dose-only effect, or another doubt; inactive = no such curve, though single readings can be large or run the other way. Where the call is inconclusive, the potency comes from a doubtful curve fit. Potency is read from the fitted curve at half-maximal effect; tags tell the direction and shape of the fitted curve.", "data": [{"experiment": "qHTS Assay for Inhibitors of Hepatitis C Virus (HCV)", "conditions": "Huh7.5.1 HCVcc-Cre (HCVcc is cell-culture hepatitis C virus) infection, luciferase reporter, 44 h; series mostly up to 41.8 µM", "how_it_was_run": "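Seed cells (1,000/well) for 4 h; treat with compound and infect with HCVcc-Cre, moi about 0.5. Incubate 44 h, then detect luciferase activity.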", "values": [{"smiles": "O=C(CN1C(=O)c2ccccc2C1=O)Nc1ccc(S(=O)(=O)NCC2CCCO2)cc1", "note": "(stereo not drawn)", "Potency": "inactive"}, {"smiles": "COc1ccc(C)c2sc(NC(=O)CCS(=O)(=O)c3ccccc3)nc12", "Potency": "inconclusive: 8.91 µM [inhibitor, partial curve, poor fit]"}, {"smiles": "O=C(O)CCCC(=O)Nc1nc2n(n1)C(c1ccc(F)cc1)CC(c1ccc(Cl)cc1)N2", "note": "(stereo not drawn)", "Potency": "inactive"}, {"smiles": "C[C@@H]1CN([C@@H](C)CO)C(=O)c2cccc(NC(=O)C3CCCCC3)c2O[C@@H]1CN(C)C(=O)NC1CCCCC1", "Potency": "inactive"}, {"smiles": "FC(F)(F)C(Oc1nc(NC2CCCCC2)nc(N2CCOCC2)n1)C(F)(F)F", "Potency": "inconclusive: 31.6 µM [inhibitor, single point]"}, {"smiles": "Cc1ccc(NC(=O)CN2C(=O)N/C(=C/c3ccc(C)s3)C2=O)cc1", "Potency": "inconclusive: 0.501 µM [inhibitor, partial curve, poor fit]"}, {"smiles": "O=C(NCC1CCCO1)c1ccc([N+](=O)[O-])s1", "note": "(stereo not drawn)", "Potency": "inconclusive: 31.6 µM [inhibitor, single point]"}, {"smiles": "Cc1ccc(C(=O)COC(=O)c2n[nH]c(=O)c3ccccc23)cc1", "Potency": "inconclusive: 2 µM [inhibitor, partial curve]"}, {"smiles": "O=C(NC(=S)Nc1ccccc1)c1csnn1", "Potency": "inactive"}, {"smiles": "COc1ccc(CNC(=O)C(=O)NCc2ccncc2)cc1", "Potency": "inconclusive: 31.6 µM [inhibitor, partial curve]"}, {"smiles": "O=C(c1ccc(F)cc1)C1CCN(CCn2c(=O)[nH]c3ccccc3c2=O)CC1", "Potency": "inconclusive: 3.55 µM [inhibitor, full curve, poor fit] and inconclusive: 7.08 µM [inhibitor, full curve, poor fit]"}, {"smiles": "COC(=O)C1=C(c2ccccc2OCc2ccccc2)C[C@@H]2CC[C@H]1N2C(=O)NCc1cccc(F)c1", "Potency": "inconclusive: 11.2 µM [inhibitor, partial curve]"}, {"smiles": "CCN(CC(=O)Nc1cc(Cl)ccc1C)C(=O)c1cc(S(=O)(=O)N2CCCCCC2)ccc1OC", "Potency": "inconclusive: 2.82 µM [inhibitor, single point]"}, {"smiles": "CC(=O)Nc1cc(C(=O)N2CCCC2)ccc1S(=O)(=O)c1ccc(C)cc1", "Potency": "inactive"}, {"smiles": "CC1CC(C)(C)Nc2ccc(N=O)cc21", "note": "(stereo not drawn)", "Potency": "inconclusive: 31.6 µM [inhibitor, single point]"}, {"smiles": "CN(Cc1ccc(Cl)s1)C(=O)CCl", "Potency": "inconclusive: 20 µM [inhibitor, single point]"}, {"smiles": "CCCCOc1ccc(C(=O)Nc2cccc(C)n2)cc1", "Potency": "inconclusive: 14.1 µM [inhibitor, partial curve]"}, {"smiles": "O=C1c2[nH]nc(-c3ccccc3O)c2C(c2cccc(O)c2)N1Cc1ccco1", "note": "(stereo not drawn)", "Potency": "inconclusive: 12.6 µM [inhibitor, partial curve]"}, {"smiles": "O=C(Cn1nc(Cc2ccncc2)c2ccccc2c1=O)N1CCc2ccccc2C1", "Potency": "inconclusive: 31.6 µM [inhibitor, single point]"}, {"smiles": "CSCCC(NS(=O)(=O)c1ccc(C)cc1)C(=O)NCCc1c[nH]c2ccccc12", "note": "(stereo not drawn)", "Potency": "inconclusive: 7.94 µM [inhibitor, partial curve, poor fit]"}, {"smiles": "COc1ccc(S(=O)(=O)N2CCOCC2)cc1NS(=O)(=O)/C=C/c1ccccc1", "Potency": "inactive"}, {"smiles": "COc1ccc2c(c1)c1ncn(CCN3CCCCC3)c(=O)c1n2C", "Potency": "inconclusive: 31.6 µM [inhibitor, single point]"}, {"smiles": "Cc1ccc(CNC(=O)c2ccc(N3CCC4(CC3)CC(c3ccccc3)=NO4)c(NC(=O)c3ccc(Cl)c([N+](=O)[O-])c3)c2)cc1", "Potency": "active: 11.2 µM"}, {"smiles": "CC(=O)c1ccc(OCc2cc(C(=O)NCCc3ccc(Cl)cc3)no2)cc1", "Potency": "inactive"}, {"smiles": "O=C(N/N=C/c1ccc(Br)s1)c1c[nH]c2ccccc12", "Potency": "inconclusive: 31.6 µM [inhibitor, single point]"}, {"smiles": "CCOc1ccc(S(=O)(=O)N2CCOCC2)cc1NC(=O)CSCc1c(C)noc1C", "Potency": "inconclusive: 3.98 µM [inhibitor, single point]"}, {"smiles": "O=C(O)c1cccnc1SCc1ccccc1Cl", "Potency": "inactive"}, {"smiles": "Cn1c(=O)c(C#N)c(-c2ccc(F)cc2)c2cc(C(=O)c3cc(Cl)cc(Cl)c3O)cnc21", "Potency": "active: 11.2 µM"}, {"smiles": "CCN1C(=O)c2ccc(C(=O)Nc3ccc4c(c3)OCO4)cc2C1=O", "Potency": "inactive"}, {"smiles": "CCOc1ccccc1NC(=S)NCc1ccccc1", "Potency": "inconclusive: 10 µM [inhibitor, partial curve]"}, {"smiles": "CCCCOc1ccc(C(=O)NCC(=O)NCCOc2ccccc2OC)cc1", "Potency": "active: 12.6 µM"}, {"smiles": "CCOc1c(C=C(C#N)C#N)c2ccccc2n1CC", "Potency": "inconclusive: 31.6 µM [inhibitor, single point]"}, {"smiles": "O=C1CN(C(=O)COC(=O)c2ccccc2Br)c2ccccc2N1", "Potency": "inconclusive: 31.6 µM [inhibitor, single point]"}, {"smiles": "CCOc1cccc(/C(O)=C2/C(=O)C(=O)N(Cc3ccco3)C2c2ccncc2)c1", "note": "(stereo not drawn)", "Potency": "inactive"}, {"smiles": "COc1ccc(-n2cc(C(=O)O)c(=O)cc2C)cc1", "Potency": "inactive"}, {"smiles": "O=C(/C=C/c1ccc(F)cc1)NC(=S)NC1CCCCC1", "Potency": "inactive"}, {"smiles": "C=CCSc1nnc(-c2cc(C(C)(C)C)nn2Cc2ccc(F)cc2)n1C", "Potency": "inactive"}, {"smiles": "NC(=O)c1ccccc1N/C=C/C(=O)c1ccccc1", "Potency": "inconclusive: 3.16 µM [inhibitor, partial curve]"}, {"smiles": "Cn1nc(-c2ccccc2)c(CSc2ccccc2Cl)c1Cl", "Potency": "inconclusive: 11.2 µM [inhibitor, partial curve, poor fit]"}, {"smiles": "C=CCSC1=C(C#N)C(c2ccc(C(C)C)cc2)CC(=O)N1", "note": "(stereo not drawn)", "Potency": "inactive"}, {"smiles": "CCCc1nc(NCc2ccccn2)c2nnn(Cc3ccccc3F)c2n1", "Potency": "inconclusive: 10 µM [inhibitor, partial curve]"}, {"smiles": "CCCNC(=O)c1c(CSc2ccccc2)noc1C(=O)NCc1ccccc1", "Potency": "inconclusive: 22.4 µM [inhibitor, single point]"}, {"smiles": "O=C(Oc1c(Cl)cc(Cl)c2cccnc12)c1cccs1", "Potency": "inconclusive: 11.2 µM [inhibitor, partial curve]"}, {"smiles": "CCOc1ccc(C2=CSC3=NCCN23)cc1Cl", "Potency": "inconclusive: 8.91 µM [inhibitor, partial curve]"}, {"smiles": "Cc1nc2cc(C(=O)OCC(=O)N(CC(C)C)C3CCS(=O)(=O)C3)ccc2n1-c1ccccc1", "note": "(stereo not drawn)", "Potency": "inconclusive: 5.62 µM [inhibitor, single point]"}, {"smiles": "CCN(CC)S(=O)(=O)c1ccc2c(c1)c(=O)c(C(=O)NCCN(C)CCc1ccccc1)cn2C", "Potency": "inconclusive: 31.6 µM [inhibitor, single point]"}, {"smiles": "COc1ccc(CCNc2oc(Cc3cccc4ccccc34)nc2C#N)cc1OC", "Potency": "active: 7.94 µM"}, {"smiles": "CCN(CC)CCCNC(=O)c1sc2ncn(CC(=O)Nc3ccc(C)c(Cl)c3)c(=O)c2c1C", "Potency": "active: 14.1 µM"}, {"smiles": "Cc1nc(NC(=O)c2cc3c(s2)CCCCC3)sc1C(=O)N(C)C", "Potency": "active: 11.2 µM"}, {"smiles": "Cc1nc(N2CCN(c3ccccn3)CC2)c2c(C)c(C(=O)N3CCN(c4ccccc4F)CC3)sc2n1", "Potency": "active: 31.6 µM"}, {"smiles": "CC1CC1c1ccc(/C=C(\\C#N)C(=O)Nc2ccc(Cl)cc2Cl)o1", "note": "(stereo not drawn)", "Potency": "inconclusive: 22.4 µM [inhibitor, single point]"}, {"smiles": "Cc1cc(C)c(S(=O)(=O)N2CCOC2CNC(=O)C(=O)NCCc2ccc(S(N)(=O)=O)cc2)c(C)c1", "note": "(stereo not drawn)", "Potency": "inactive"}, {"smiles": "Cc1cc(C(=O)OCC(=O)c2c(N)n(C)c(=O)n(C)c2=O)c(C)n1-c1ccccc1", "Potency": "inactive"}, {"smiles": "CCC(=O)Nc1c(S(=O)(=O)c2ccc(C)cc2)c2nc3ccccc3nc2n1C(C)c1ccccc1", "note": "(stereo not drawn)", "Potency": "inconclusive: 14.1 µM [inhibitor, single point]"}, {"smiles": "CC1=CC(C)(C)N2C(=O)C3(C(C#N)=C(N)Oc4cc(O)ccc43)c3cccc1c32", "note": "(stereo not drawn)", "Potency": "inconclusive: 8.91 µM [inhibitor, partial curve, poor fit]"}, {"smiles": "O=C(/C=C/c1ccc(Cl)cc1)N1CCN(CCN2C(=O)c3cccc4cccc(c34)C2=O)CC1", "Potency": "inconclusive: 2.24 µM [inhibitor, partial curve]"}, {"smiles": "COc1cc2c(cc1OC)CN(C(=O)c1cccs1)CC2", "Potency": "inactive"}, {"smiles": "COC(=O)C1=C(C)NC(=S)NC1c1ccc(-c2cc(Cl)ccc2Cl)o1", "note": "(stereo not drawn)", "Potency": "inconclusive: 1.58 µM [inhibitor, partial curve, poor fit]"}, {"smiles": "Cc1ccc2cc(/C=C(\\C#N)C(N)=O)c(N3CCCCC3)nc2c1", "Potency": "active: 14.1 µM"}, {"smiles": "CC1CCN(C(=O)c2ccc(CNS(=O)(=O)c3ccc(C(C)(C)C)cc3)cc2)CC1", "Potency": "active: 22.4 µM"}, {"smiles": "Cc1ccccc1-n1nnnc1SCc1csc(-c2ccccc2)n1", "Potency": "inconclusive: 11.2 µM [inhibitor, partial curve]"}, {"smiles": "O=C(COc1ccc(Cl)cc1)N1CCN(c2ccc([N+](=O)[O-])c(N3CCCCC3)c2)CC1", "Potency": "inconclusive: 5.62 µM [inhibitor, full curve]"}, {"smiles": "Cc1ccc(S(=O)(=O)N(C)c2ccc(OCC(=O)Nc3ccc(S(C)(=O)=O)cc3)cc2)cc1", "Potency": "inconclusive: 15.8 µM [inhibitor, single point]"}, {"smiles": "NC(=O)c1ccc(NC(=O)CCCN2C(=O)c3ccccc3C2=O)cc1", "Potency": "inconclusive: 14.1 µM [inhibitor, single point]"}, {"smiles": "CCOC(=O)NC(=O)CSc1nc2ccccc2[nH]1", "Potency": "inactive"}, {"smiles": "CC(=O)Nc1ccc(S(=O)(=O)N2CCN(CCc3ccccc3)CC2)cc1", "Potency": "inconclusive: 11.2 µM [inhibitor, single point]"}, {"smiles": "CC1CN(S(=O)(=O)c2ccc(C(=O)N(CCCN(C)C)c3nc4c(Cl)cccc4s3)cc2)CC(C)O1", "note": "(stereo not drawn)", "Potency": "inconclusive: 10 µM [inhibitor, partial curve]"}, {"smiles": "COc1ccc(-c2csc3ncnc(N4CCN(C(=O)c5ccco5)CC4)c23)cc1", "Potency": "inconclusive: 4.47 µM [inhibitor, partial curve]"}]}]}
